Values quoted from earlier work in article PMC11006913.
The other results are listed elsewhere or left out.

Biological target: PROP1 R112Q (Homo sapiens) (UniProt O75360)
Details: PBM; conditions not shown; double strand, one strand shown; scale: upbm affinity estimate (log intensity, higher = more binding, comparable within an allelic series)

UniProt O75360, sequence (O75360 56-141 R112Q): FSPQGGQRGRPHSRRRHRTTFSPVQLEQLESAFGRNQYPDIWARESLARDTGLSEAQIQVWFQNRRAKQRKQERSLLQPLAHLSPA

Sequence	binding signal
CTAATAGC [8-mer CTAATAGC]	12.1
CAATTGGA [8-mer CAATTGGA]	12.3
AAATATCT [8-mer AAATATCT]	11.7
ATTGCTAA [8-mer ATTGCTAA]	12
GCCAATAA [8-mer GCCAATAA]	12.3
AATTGTAA [8-mer AATTGTAA]	12.1
ATCAATCG [8-mer ATCAATCG]	12.1
GATAATAC [8-mer GATAATAC]	11.9
AAATAAGT [8-mer AAATAAGT]	11.6
AATATTGG [8-mer AATATTGG]	12
ACAATTGC [8-mer ACAATTGC]	12.1
AATTGCGA [8-mer AATTGCGA]	12
ACCAATCA [8-mer ACCAATCA]	12.3
CAATTGGC [8-mer CAATTGGC]	12.4
CAATTGTA [8-mer CAATTGTA]	12.2
GAATTGGC [8-mer GAATTGGC]	12
GATATTAA [8-mer GATATTAA]	12.2
CCAATTGC [8-mer CCAATTGC]	12.1
AGTATTAT [8-mer AGTATTAT]	11.8
GATCAATC [8-mer GATCAATC]	12

Sequence	binding signal
GATGAGTA [8-mer GATGAGTA]	11.7
ACCAATCG [8-mer ACCAATCG]	11.8
TGTGATAA [8-mer TGTGATAA]	11.9
GCCAATCA [8-mer GCCAATCA]	12.1
CAATTGAG [8-mer CAATTGAG]	12.3
GATTGGAC [8-mer GATTGGAC]	11.8
ACAATTGG [8-mer ACAATTGG]	12.2
CCAATAGA [8-mer CCAATAGA]	12
GCAATTGA [8-mer GCAATTGA]	12.2
CCAATTTA [8-mer CCAATTTA]	12.6
GACAATAA [8-mer GACAATAA]	11.9
ACCAATTC [8-mer ACCAATTC]	12.1
CAATTGTG [8-mer CAATTGTG]	12.2
CAATTCAG [8-mer CAATTCAG]	11.9
CAATAGAC [8-mer CAATAGAC]	11.8
CCAATCAG [8-mer CCAATCAG]	12
CCAATTCA [8-mer CCAATTCA]	12.1
ATCAATAG [8-mer ATCAATAG]	12
ATTGATCA [8-mer ATTGATCA]	12.2
